# This is one part of the list.
# B1: TLEC1 (Arabidopsis thaliana), Q9C5Q9 (protein)
# chain: MSGASSVSSICSSNVSLIPTGPQVFINFRGKDLRKGFMSFLKPALKKEKINVFIDEQEERGKYLISLFDTIGESKIALVIFSEGYCESHWCMDELVKIKEYMDQNRLIIIPIFYRLDLDVVKDLTGKFGDNFWDLVDKYQPEPKKLHKWTEALFSVCELFSLILPKHSDISDRDFVKSIVKAVKKVQKNFFQRRNGEIEYQDFSVPACKLTITMHESPNEEAVQVTVLNEFYQMKNQSPVPSYEFKFWVDLTRPKGNVFMIDARDLSIAWSEDSNHWTWLPLPNQNSNESVMEIAFLKSASWLDVAGKFDTRYLTPRTRYEVVFVVKLEYTFEWETLVKLKLDLPNTWEKPQEQSVDMFDYISDQWLDIPVGEFTTSKKNVGEISFAMYEHECQLWKSGLFVKGVTIRPKY
# Assays:
# Assay in all cases: glycan array binding signal (z-score within array); higher = stronger binding
# Conditions in all cases: glycan notation: IUPAC condensed, linker removed
# [1] = target: Fuc(a1-2)Gal
# Summary of the method: (§1)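 The Consortium for Functional Glycomics database supplied 3228 glycan arrays, of which those lacking an available protein sequence were dropped. The binding signal, a within-array Z-score, was averaged across arrays of the same protein sequence and across linkers. Negative scores can be read as non-binding.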
# [2] = target: Fuc(a1-2)Gal(b1-3)GalNAc
# Summary of the method: as §1
# [3] = target: Fuc(a1-2)Gal(b1-3)GalNAc(b1-3)Gal
# Summary of the method: as §1
# [4] = target: Fuc(a1-2)Gal(b1-3)GalNAc(b1-3)Gal(a1-4)Gal(b1-4)Glc
# Summary of the method: as §1
# [5] = target: Fuc(a1-2)Gal(b1-3)GalNAc(b1-3)Gal(b1-4)Glc
# Summary of the method: as §1
# [6] = target: Fuc(a1-2)Gal(b1-3)GalNAc(b1-4)[Neu5Ac(a2-3)]Gal(b1-4)Glc
# Summary of the method: as §1
# [7] = target: Fuc(a1-2)Gal(b1-3)[Fuc(a1-4)]GlcNAc
# Summary of the method: as §1
# [8] = target: Fuc(a1-2)Gal(b1-4)Glc
# Summary of the method: as §1
# [9] = target: Fuc(a1-2)Gal(b1-4)Glc6S
# Summary of the method: as §1
# [10] = target: Fuc(a1-2)Gal(b1-4)GlcNAc
# Summary of the method: as §1
# [11] = target: Fuc(a1-2)Gal(b1-4)GlcNAc(b1-3)Gal(b1-4)GlcNAc
# Summary of the method: as §1
# [12] = target: Fuc(a1-2)Gal(b1-4)GlcNAc(b1-3)Gal(b1-4)GlcNAc(b1-3)Gal(b1-4)GlcNAc
# Summary of the method: as §1
# [13] = target: Fuc(a1-2)Gal(b1-4)GlcNAc6S
# Summary of the method: as §1
# [14] = target: Fuc(a1-2)Gal(b1-4)[Fuc(a1-3)]GalNAc(b1-3)Gal(b1-4)[Fuc(a1-3)]GlcNAc
# Summary of the method: as §1
# [15] = target: Fuc(a1-2)Gal(b1-4)[Fuc(a1-3)]GalNAc(b1-3)Gal(b1-4)[Fuc(a1-3)]GlcNAc(b1-3)Gal(b1-4)[Fuc(a1-3)]GalNAc
# Summary of the method: as §1
# [16] = target: Fuc(a1-2)Gal(b1-4)[Fuc(a1-3)]GlcNAc
# Summary of the method: as §1
# [17] = target: Fuc(a1-2)Gal6S(b1-4)Glc
# Summary of the method: as §1
# [18] = target: Fuc(a1-2)Gal6S(b1-4)Glc6S
# Summary of the method: as §1
# [19] = target: Fuc(a1-2)Gal6S(b1-4)GlcNAc
# Summary of the method: as §1
# [20] = target: Fuc(a1-2)GlcNAc
# Summary of the method: as §1
# [21] = target: Fuc(a1-2)[Gal(a1-3)]Gal
# Summary of the method: as §1
# [22] = target: Fuc(a1-2)[Gal(a1-3)]Gal(b1-3)GlcNAc
# Summary of the method: as §1
# [23] = target: Fuc(a1-2)[Gal(a1-3)]Gal(b1-4)Glc
# Summary of the method: as §1
# [24] = target: Fuc(a1-2)[Gal(a1-3)]Gal(b1-4)GlcNAc
# Summary of the method: as §1
# [25] = target: Fuc(a1-2)[Gal(a1-3)]Gal(b1-4)[Fuc(a1-3)]GlcNAc
# Summary of the method: as §1
# [26] = target: Fuc(a1-2)[Gal(a1-4)]Gal(b1-4)GalNAc
# Summary of the method: as §1
# [27] = target: Fuc(a1-2)[GalNAc(a1-3)]Gal
# Summary of the method: as §1
# [28] = target: Fuc(a1-2)[GalNAc(a1-3)]Gal(b1-3)GlcNAc
# Summary of the method: as §1
# [29] = target: Fuc(a1-2)[GalNAc(a1-3)]Gal(b1-4)Glc
# Summary of the method: as §1
# [30] = target: Fuc(a1-2)[GalNAc(a1-3)]Gal(b1-4)GlcNAc
# Summary of the method: as §1
binder,measurement,setting,value
B1,glycan array binding signal (z-score),[1],1.05
same,glycan array binding signal (z-score),[2],0.449
same,glycan array binding signal (z-score),[3],0.538
same,glycan array binding signal (z-score),[4],0.327
same,glycan array binding signal (z-score),[5],-0.058
same,glycan array binding signal (z-score),[6],-0.032
same,glycan array binding signal (z-score),[7],-0.075
same,glycan array binding signal (z-score),[8],1.08
same,glycan array binding signal (z-score),[9],-0.534
same,glycan array binding signal (z-score),[10],1.05
same,glycan array binding signal (z-score),[11],0.966
same,glycan array binding signal (z-score),[12],0.949
same,glycan array binding signal (z-score),[13],-0.349
same,glycan array binding signal (z-score),[14],1.49
same,glycan array binding signal (z-score),[15],1.02
same,glycan array binding signal (z-score),[16],1.13
same,glycan array binding signal (z-score),[17],-0.075
same,glycan array binding signal (z-score),[18],0.045
same,glycan array binding signal (z-score),[19],-0.112
same,glycan array binding signal (z-score),[20],0.564
same,glycan array binding signal (z-score),[21],-0.268
same,glycan array binding signal (z-score),[22],-0.321
same,glycan array binding signal (z-score),[23],-0.089
same,glycan array binding signal (z-score),[24],-0.175
same,glycan array binding signal (z-score),[25],0.143
same,glycan array binding signal (z-score),[26],-0.137
same,glycan array binding signal (z-score),[27],-0.181
same,glycan array binding signal (z-score),[28],0.897
same,glycan array binding signal (z-score),[29],0.249
same,glycan array binding signal (z-score),[30],0.22
